# Experimental data as given in PubChem BioAssay AID1745853 (National Center for Advancing Translational Sciences (NCATS), 2022).
# The list shows a part of the results. These are further read-outs of the screen, such as a control signal, another cell line or another target. No call is given for them.
# Key:
# Test in all cases: Primary Screen for Target Class Profiling of Small Molecule Inhibitors of Methyltransferases
# [1] = target: Glycine N-methyltransferase (Homo sapiens) (UniProt Q14749); settings: purified enzyme, MTase-Glo SAH luminescence; measured here: GNMT inhibition; at 40 µM; stronger effect = lower value
# Method in brief: (§1)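 Each enzyme was reacted with SAM and its substrate, with compounds tested once at 40 uM; SAH formed was read by MTase-Glo luminescence.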
# [2] = target: Guanidinoacetate N-methyltransferase (Homo sapiens) (UniProt Q14353); settings: purified enzyme, MTase-Glo SAH luminescence; measured here: GAMT inhibition; at 40 µM; stronger effect = lower value
# Method in brief: as §1
# [3] = target: Histamine N-methyltransferase (Homo sapiens) (UniProt P50135); settings: purified enzyme, MTase-Glo SAH luminescence; measured here: HNMT inhibition; at 40 µM; stronger effect = lower value
# Method in brief: as §1
# [4] = target: Nicotinamide N-methyltransferase (Homo sapiens) (UniProt P40261); settings: purified enzyme, MTase-Glo SAH luminescence; measured here: NNMT inhibition; at 40 µM; stronger effect = lower value
# Method in brief: as §1
# [5] = target: Phenylethanolamine N-methyltransferase (Homo sapiens) (UniProt P11086); settings: purified enzyme, MTase-Glo SAH luminescence; measured here: PNMT inhibition; at 40 µM; stronger effect = lower value
# Method in brief: as §1
# % is scaled to controls: 0 for no effect and ±100 for the full control effect.
SMILES,"activity change, negative = inhibition [1] [%]","activity change, negative = inhibition [2] [%]","activity change, negative = inhibition [3] [%]","activity change, negative = inhibition [4] [%]","activity change, negative = inhibition [5] [%]"
COc1ccc(OC)c(NC(=O)N2Cc3ccccc3-n3cccc3C2c2ccc(C(C)C)cc2)c1 (stereo unspecified),-2.05,2.02,-8.25,-6.81,-1.1
O=C(Nc1cccc(Br)c1)N1Cc2ccccc2-n2cccc2C1c1cccs1 (stereo unspecified),6.06,1.74,4.05,1.97,4.28
CN1CCN(c2ccc([N+](=O)[O-])c3no[n+]([O-])c23)CC1,-1.98,-3.03,5.95,-9.77,-2.35
CNc1ncc(C(=O)N2C[C@H]3COc4ccccc4C[C@@]3(C(=O)O)C2)cn1,-2.48,-7.74,-2.87,-9.65,-4.08
COCCCNC(=O)N1Cc2ccccc2-n2cccc2C1c1cccs1 (stereo unspecified),4.03,4.32,-6.84,-4.99,3.25
Cc1c(C(=O)Nc2cccc(C(F)(F)F)c2)cc(-c2ccccc2)n1CCCN1CCOCC1,3.26,-7.61,-18.3,-21.2,-7.08
CC(C)(C)OC(=O)NC1[C@H]2CNC[C@@H]12 (stereo partly specified),0.311,9.69,3.7,-5.38,5.12
CC(N[C@H]1C[C@@H]1c1ccccc1)c1ccc2c(c1)OCCO2 (stereo partly specified),,-3.12,,-17.1,-12.9
COc1ccc(CNC(=O)/C=C/c2ccc3[nH]cc(CCN(C)C)c3c2)cc1,-8.1,7.62,-86.2,-4.74,5.98
C/C=C/CN1CC2ON=C(C(=O)O)C2C1 (stereo unspecified),-3.46,-5.41,-0.049,1.65,-4.43
COc1cc2c(cc1OCc1ccncc1)NC(=O)C21CCN(Cc2ccccc2)CC1,-22.4,-8.36,-32.1,-42.5,0.56
CCCNC(=O)N1Cc2ccccc2-n2cccc2C1c1cccs1 (stereo unspecified),7.06,0,-7.79,-5.17,2.4
COc1ccc(NC(=O)N2Cc3ccccc3-n3cccc3C2c2cccc(C)c2)cc1 (stereo unspecified),1.08,-3.27,-5.03,-8.07,-3.19
Cc1nnc2n1-c1sc(CCc3ccc(CC(C)C)cc3)cc1C(c1ccccc1Cl)=NC2C (stereo unspecified),-7.61,4.25,-1.34,-50.6,3.41
C[N+](C)(C)CC#CCN1CCCC1=O,-14.5,-1.49,-1.76,-11.3,3.03
COc1cc2c(cc1Oc1ccccc1)NC(=O)C21CCN(c2nc(C)cnc2C)CC1,-12.9,-11.9,-6.48,-11.2,-6.91

SMILES,"activity change, negative = inhibition [1] [%]","activity change, negative = inhibition [2] [%]","activity change, negative = inhibition [3] [%]","activity change, negative = inhibition [4] [%]","activity change, negative = inhibition [5] [%]"
NC(=O)c1ccc(OCC(O)CN2CC=C(c3ccc(F)cc3)CC2)cc1 (stereo unspecified),8.56,10.3,-1.52,-8.97,-4.75
CCOc1ccc(C2c3cccn3-c3ccccc3CN2C(=O)Nc2cc(C)cc(C)c2)cc1 (stereo unspecified),-5.76,1.29,-3.41,-3.56,-0.956
COc1ccc(NC(=O)N2Cc3ccccc3-n3cccc3C2c2ccc(C)cc2)cc1OC (stereo unspecified),8.99,0,7.51,1.91,2.61
Clc1ccc([C@]23CNC[C@H]2C3)cc1Cl,0.275,1.75,-15.6,-12,-88.6
O=C(Nc1ccc(F)cc1)N1Cc2ccccc2-n2cccc2C1c1ccc(F)cc1 (stereo unspecified),0.543,2.16,0.731,-1.22,5.78
COc1ccccc1NC(=O)N1Cc2ccccc2-n2cccc2C1c1ccc(SC)cc1 (stereo unspecified),1.17,0.553,-0.65,1.79,6.43
COc1ccn(C)c(=O)c1C#N,,8.76,,-3.74,8.3
COc1ccc(C2c3cccn3-c3ccccc3CN2C(=O)NCc2ccc(F)cc2)cc1 (stereo unspecified),11.1,0,8.28,8.16,3.56
CCOC(=O)CC1(NC(=O)N2Cc3ccccc3-n3cccc3C2c2cccs2)CCCCC1 (stereo unspecified),9.75,0,8.1,2.91,2.97
Cc1cc(C)cc(NC(=O)N2Cc3ccccc3-n3cccc3C2c2ccccc2)c1 (stereo unspecified),6.42,0,-1.7,0.15,3.49
CCC1c2cccn2-c2ccccc2CN1C(=O)Nc1cc(F)ccc1F (stereo unspecified),-1.52,0,-3.81,-8.13,-0.496
CCOC(=O)NC(C)(C)Cc1ccc(Cl)cc1,-3.81,-3.6,12.2,-13.3,-0.24
CCOC(=O)Cc1ccc(NC(=O)N2Cc3ccccc3-n3cccc3C2CC)cc1 (stereo unspecified),-4.04,0,-5.8,-1.68,0.812
NC(=O)CN1CC(O)CC1=O (stereo unspecified),-2.1,4.44,-0.489,-6.53,6.08
COc1ccccc1-c1cc([C@H]2CN3CC[C@H]2C[C@@H]3CNC(=O)N2CCOCC2)n(C)n1,-0.906,1.72,-0.276,-0.153,-5.88
Cc1cccc(C2c3cccn3-c3ccccc3CN2C(=O)NCc2ccco2)c1 (stereo unspecified),3.75,3.78,-2.8,-4.47,1.04
